Here are results for 71 compounds from publication PMC3199943, “Screening the MayBridge Rule of 3 Fragment Library for Compounds That Interact with the Trypanosoma brucei myo-Inositol-3-Phosphate Synthase and/or Show Trypanocidal Activity” (Molecular Biology International, 2011).

SMILES strings stand for the structures. Where a name gives a salt, the structure may show the parent alone.

The first experiment has as its system cultured bloodstream T. brucei (strain 427). As to the kind of experiment: microbe, parasite or virus in culture. The conditions noted are these: Trypanosoma brucei, read-out: T. brucei Alamar Blue.
`O=C(O)C1CCOCC1` [compound 92, tetrahydro‐2H‐pyran‐4‐carboxylic acid]: the viability at 500 µM amounted to 58.7 ± 14.3%.

For `NC(=S)Nc1ccncc1` [compound 215, N‐(4‐pyridyl)thiourea], the viability at 500 µM was 119 ± 17%.

Turning to `O=C1CCOCC1` [compound 12, tetrahydro‐4H‐pyran‐4‐one], the viability at 500 µM was 103 ± 17.2%.

As to `OCc1ccc(CN2CCCCC2)cc1` [compound 669, [4‐(piperidin‐1‐ylmethyl)phenyl]methanol], the viability at 500 µM came out at 72.2 ± 11.3%.

Turning to `CC(=O)c1ccc(C#N)s1` [compound 198, 5‐acetylthiophene‐2‐carbonitrile], the viability at 500 µM worked out at 79.6 ± 18.5%.

For `Nc1ccc(-c2cccnc2)cc1` [compound 347, 4‐pyridin‐3‐ylaniline], the viability at 500 µM came out at 26.4 ± 5.2%.

Consider `NCc1ccccc1Cl` [compound 136, 2‐chlorobenzylamine], for which the viability at 500 µM was 113 ± 5.8%.

On to `O=C(O)c1ccco1` [compound 27, 2‐furoic acid], for which the viability at 500 µM turned out to be 21.3 ± 1%.

For the compound `OCc1cccc2c1OCO2` [compound 203, 1,3‐benzodioxol‐4‐ylmethanol], the viability at 500 µM turned out to be 74.8 ± 13.4%.

Consider `O=C(O)Cc1ccccc1O` [compound 201, 2‐(2‐hydroxyphenyl)acetic acid], for which the viability at 500 µM turned out to be 87.4 ± 8.7%.

In the case of `Nc1ccc2[nH]ncc2c1` [compound 101, 1H‐indazol‐5‐amine], the viability at 500 µM amounted to 38.2 ± 11.6%.

`Oc1ccc(F)c(Cl)c1` [compound 160, 3‐chloro‐4‐fluorophenol]: the viability at 500 µM worked out at 50.8 ± 16.5%.

Regarding `Oc1ccc(SC(F)(F)F)cc1` [compound 584, 4‐[(trifluoromethyl)thio]phenol], the viability at 500 µM came out at 94.2 ± 17.2%.

In the case of `CN(C)CCOc1ccc(C#N)cc1` [compound 542, 4‐[2‐(dimethylamino)ethoxy]benzonitrile], the viability at 500 µM turned out to be 79.7 ± 7.3%.

On to `CC1OCCC1=O` (stereo not drawn) [compound 11, 2‐methyltetrahydrofuran‐3‐one], for which the viability at 500 µM was found to be 97.8 ± 15.4%.

In the case of `CN1CCN(c2ccc(N)cc2)CC1` [compound 562, 4‐(4‐methylpiperazino)aniline], the viability at 500 µM came to 15.6 ± 6.1%.

For `CCc1cccc(C)n1` [compound 52, 2‐ethyl‐6‐methylpyridine], the viability at 500 µM is 80.8 ± 14%.

Turning to `Cc1ccc2c(c1)OCO2` [compound 116, 5‐methyl‐1,3‐benzodioxole], the viability at 500 µM came to 115 ± 5.4%.

In the case of `O=C(O)c1cc2ccccc2cn1` [compound 555, isoquinoline‐3‐carboxylic acid hydrate], the viability at 500 µM worked out at 34.9 ± 11.7%.

`COc1cccc(OC)c1SC` [compound 481, 1,3‐dimethoxy‐2‐(methylthio)benzene]: the viability at 500 µM turned out to be 82.6 ± 6.8%.

In the case of `O=C(O)CCc1ccccc1O` [compound 323, 3‐(2‐hydroxyphenyl)propanoic acid], the viability at 500 µM was found to be 111 ± 8.6%.

Take `Cc1ccc(O)c2c1CCC2` [compound 173, 7‐methylindan‐4‐ol]: the viability at 500 µM came out at 29.6 ± 6%.

Regarding `N#CN1CCCC1` [compound 3, pyrrolidine‐1‐carbonitrile], the viability at 500 µM came out at 82.5 ± 12.8%.

As to `Cc1nc(CO)c(C)o1` [compound 78, (2,5‐dimethyl‐1,3‐oxazol‐4‐yl)methanol], the viability at 500 µM was 103 ± 10.5%.

With `c1ccc(-c2c[nH]cn2)cc1` [compound 149, 4‐phenyl‐1H‐imidazole], the viability at 500 µM is 86.3 ± 13.6%.

On to `Cc1cc(C(=O)O)c(-c2ccccc2)o1` [compound 635, 5‐methyl‐2‐phenyl‐3‐furoic acid], for which the viability at 500 µM worked out at 40.5 ± 7.4%.

On to `Fc1ccc(-n2cccc2)cc1` [compound 276, 1‐(4‐fluorophenyl)‐1H‐pyrrole], for which the viability at 500 µM was found to be 45.2 ± 16%.

Turning to `OCc1nccn1Cc1ccccc1` [compound 526, (1‐benzyl‐1H‐imidazol‐2‐yl)methanol], the viability at 500 µM stood at 84.5 ± 7.1%.

Consider `CC1(C)C=Cc2cc(C#N)ccc2O1` [compound 487, 2,2‐dimethyl‐2H‐chromene‐6‐carbonitrile], for which the viability at 500 µM worked out at 80.4 ± 8.8%.

Regarding `OCc1cccc(-c2ccncc2)c1` [compound 491, (3‐pyrid‐4‐ylphenyl)methanol], the viability at 500 µM is 53.1 ± 10.8%.

Regarding `OCC1COc2ccccc2C1` (stereo not drawn) [compound 300, 3,4‐dihydro‐2H‐chromen‐3‐ylmethanol], the viability at 500 µM came to 73.2 ± 12.1%.

For `O=C(O)c1ccc(-c2ccsc2)cc1` [compound 648, 4‐(3‐thienyl)benzoic acid], the viability at 500 µM worked out at 71.2 ± 17.9%.

In the case of `Cc1ccc(C(N)=O)cc1C` [compound 177, 3,4‐dimethylbenzamide], the viability at 500 µM is 29.9 ± 7.7%.

With `OCc1ccnc(N2CCCC2)c1` [compound 438, (2‐pyrrolidin‐1‐ylpyrid‐4‐yl)methanol], the viability at 500 µM is 73.4 ± 14%.

Consider `Nc1ccc2c(c1)OCCO2` [compound 193, 2,3‐dihydro‐1,4‐benzodioxin‐6‐amine], for which the viability at 500 µM was determined as 29.5 ± 5.5%.

Consider `Cc1cccc(CO)n1` [compound 62, (6‐methylpyridin‐2‐yl)methanol], for which the viability at 500 µM stood at 95.7 ± 17.2%.

Regarding `NCc1cccc(F)c1` [compound 70, 3‐fluorobenzylamine], the viability at 500 µM was determined as 67.7 ± 18.9%.

As to `Cc1nc(-c2ccc(C#N)cc2)cs1` [compound 625, 4‐(2‐methyl‐1,3‐thiazol‐4‐yl)benzonitrile], the viability at 500 µM was found to be 83.5 ± 5.3%.

As to `O=C1Cc2ccccc2N1` [compound 99, indolin-2-one], the viability at 500 µM is 37.3 ± 9.2%.

Take `Cc1ccc(C(=O)O)cc1Cl` [compound 351, 3‐chloro‐4‐methylbenzoic acid]: the viability at 500 µM amounted to 38 ± 12.2%.

As for `Cc1cc(CO)c(-c2ccccc2)o1` [compound 522, (5-methyl-2-phenyl-3-furyl)methanol], the viability at 500 µM came out at 45.4 ± 7.9%.

In the case of `N#Cc1ccccc1OC(F)(F)F` [compound 509, 2‐(trifluoromethoxy)benzonitrile], the viability at 500 µM was 114 ± 19.6%.

For the compound `Cc1nccc(-c2cccc(N)c2)n1` [compound 493, 3‐(2‐methylpyrimidin‐4‐yl)aniline], the viability at 500 µM was determined as 72.2 ± 9.4%.

As to `OCc1ccc(-n2ccnc2)cc1` [compound 386, [4‐(1H‐imidazol‐1‐yl)phenyl]methanol], the viability at 500 µM came to 87.6 ± 0.2%.

`N#Cc1cc(-c2ccccc2)oc1N` [compound 477, 2‐amino‐5‐phenyl‐3‐furonitrile]: the viability at 500 µM turned out to be 93.4 ± 0.3%.

`OCc1cccc(N2CCCC2)c1` [compound 428, (3‐pyrrolidin‐1‐ylphenyl)methanol]: the viability at 500 µM amounted to 37.2 ± 16.5%.

Take `OCc1nc2ccccc2[nH]1` [compound 169, 1H‐benzimidazol‐2‐ylmethanol]: the viability at 500 µM is 86.5 ± 2.7%.

As for `N#Cc1ccsc1N` [compound 68, 2‐aminothiophene‐3‐carbonitrile], the viability at 500 µM was 30.3 ± 11%.

On to `ON=C1CN2CCC1CC2` [compound 416, quinuclidin‐3‐one oxime hydrochloride], for which the viability at 500 µM turned out to be 109 ± 15%.

In the case of `N#Cc1ccccc1-n1cccc1` [compound 336, 2‐(1H‐pyrrol‐1‐yl)benzonitrile], the viability at 500 µM turned out to be 33.1 ± 13%.

In the case of `NS(=O)(=O)c1ccc(F)cc1F` [compound 576, 2,4‐difluorobenzenesulfonamide], the viability at 500 µM amounted to 39.2 ± 8%.

On to `COC(=O)c1ccccc1Cl` [compound 352, methyl 2‐chlorobenzoate], for which the viability at 500 µM is 93.2 ± 9.2%.

On to `CCOC(=O)C1CSCCN1` (stereo not drawn) [compound 402, ethyl thiomorpholine‐3‐carboxylate], for which the viability at 500 µM is 114 ± 12.9%.

Take `OCc1ccc2nccn2c1` [compound 171, imidazo[1,2‐a]pyridin‐6‐ylmethanol]: the viability at 500 µM was 81.7 ± 2.5%.

As for `Nc1cccc(-c2cnco2)c1` [compound 267, 3‐(1,3‐oxazol‐5‐yl)aniline], the viability at 500 µM came to 71.1 ± 9.8%.

`Cc1nc(C(N)=S)c[nH]1` [compound 135, 2-methyl-1H-imidazole-4-carbothioamide]: the viability at 500 µM came to 116 ± 16.6%.

For `N#Cc1ccc(F)cc1` [compound 51, 4‐fluorobenzonitrile], the viability at 500 µM came out at 85.3 ± 5.2%.

Take `O=C1CCC(C(F)(F)F)CC1` [compound 317, 4‐(trifluoromethyl)cyclohexan‐1‐one]: the viability at 500 µM came out at 106 ± 12.4%.

As for `CC(=O)Nc1ccc2c(c1)CCC2` [compound 400, N1‐(2,3‐dihydro‐1H‐inden‐5‐yl)acetamide], the viability at 500 µM came to 81.6 ± 17.2%.

On to `c1cc(-c2ccncc2)ccn1` [compound 235, 4,4'‐dipyridyl], for which the viability at 500 µM was 95 ± 4.3%.

Turning to `OCc1ccncc1` [compound 18, 4‐pyridinylmethanol], the viability at 500 µM is 101 ± 1.3%.

On to `OCc1ccc(C(F)(F)F)o1` [compound 314, [5‐(trifluoromethyl)‐2‐furyl]methanol], for which the viability at 500 µM was 99.1 ± 0.6%.

For the compound `NC1Cc2ccccc2C1` [compound 104, indan‐2‐amine], the viability at 500 µM was found to be 28.9 ± 6.4%.

In the case of `Cc1occc(=O)c1O` [compound 74, 3‐hydroxy‐2‐methyl‐4H‐pyran‐4‐one], the viability at 500 µM came out at 44.5 ± 21.1%.

As for `O=C(O)c1ccccc1-c1cccnc1` [compound 613, 2‐pyrid‐3‐ylbenzoic acid], the viability at 500 µM is 80.1 ± 7%.

Take `Nc1cccc(-c2ccsc2)c1` [compound 404, 3‐thien‐3‐ylaniline]: the viability at 500 µM was 39.3 ± 5.7%.

In the case of `OCc1cc2cccnc2s1` [compound 311, thieno[2,3‐b]pyridin‐2‐ylmethanol], the viability at 500 µM is 70.8 ± 9%.

As to `Cc1oc(-c2ccccc2)cc1CO` [compound 521, (2‐methyl‐5‐phenyl‐3‐furyl)methanol], the viability at 500 µM was 35 ± 3.8%.

As to `NC1CCSCC1` [compound 45, tetrahydrothiopyran‐4‐ylamine], the viability at 500 µM was 103 ± 13.8%.

The experiment is the same for the next values; noted with them: Trypanosoma brucei, read-out: T. brucei Alamar Blue (% survival).
On to `O=C1Cc2ccccc2N1` [compound 99, indolin-2-one], for which the viability at 500 µM stood at 37.3 ± 9.2%.

With `Cc1cc(CO)c(-c2ccccc2)o1` [compound 522, (5-methyl-2-phenyl-3-furyl)methanol], the viability at 500 µM was 45.4 ± 7.9%.

For `Cc1nc(C(N)=S)c[nH]1` [compound 135, 2-methyl-1H-imidazole-4-carbothioamide], the viability at 500 µM is 116 ± 16.6%.

Staying with this experiment, now noted: Trypanosoma brucei, read-out: T. brucei Alamar Blue, Supplementary Table 1; compound 0.5 mM; percentage of controls in the absence of compound; mean ± SD (n=3) or SE (n=2).
Regarding `Oc1ccc(Oc2ccccc2)cc1` [compound 502, 4‐phenoxyphenol], the viability at 500 µM turned out to be 30.7 ± 4.5%.

As to `COc1ccc(CC#N)cc1` [compound 161, 2‐(4‐methoxyphenyl)acetonitrile], the viability at 500 µM is 101 ± 1.7%.

The same experiment, now with this note: Trypanosoma brucei, read-out: T. brucei ED50, ED50 ± SD (n = 4).
On to `O=C1Cc2ccccc2N1` [compound 99, indolin-2-one], for which the IC50 was 216 ± 18 µM.
